Values marked as one replicate rest on one cluster of the flow cell; about a third of the high ones do not repeat.
System: ATP
Assay: switch fluorescence ratio, 500 uM ATP over buffer (Cy3 cluster intensity, sum of 5 cycles each) (fold (ratio)); higher = stronger signal-on switching upon ATP binding; sequences stand for … in TCGTCGGCAGCGTCAGATGTGTATAAGAGACAGTTTTTTTTTTTTTTTTTTTTTTTTT…TC
Details: aptamer strand: ATP DNA aptamer (quencher-CACCTGGGGGAGTATTGCGGAGGAAGG + anchor), 100 nM annealed; ATP concentration: 500 uM; one replicate
Method in brief: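 The quencher-labelled ATP aptamer, at 100 nM, was annealed to Cy3-labelled switching-strand clusters on a modified Illumina MiSeq flow-cell. The clusters were imaged in selection buffer, then after 15 min with 500 uM ATP at 22 °C, and this buffer/ATP cycle ran five times with NaOH stripping and re-annealing between runs. Per-cluster fluorescence ratios, summed target-cycle over summed buffer-cycle Cy3 intensity, were averaged per switch-domain sequence. Clusters outside 100-1000 RFU were excluded.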
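Also: ATP exposure 15 min at 22 °C before imaging.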

Sequence | switch fluorescence ratio
ATGGTGGGC | 1.02
TAAGCCTCTC | 1
TGAGGGAGTA | 0.939
TATACAGTC | 1.05
CGTTGGTTGT | 0.986
AAAGTGGAGC | 0.949
CCAGCCAGCC | 1.24
AAAAATACGA | 1.04
CTCTAAATG | 1.1
TCATTCACGA | 1.03
TTCTAGGTGC | 1.46
CACGTCTGT | 0.986
ACCAAACACA | 1.17
CCCATTTACG | 1.09
GCTCGTGTA | 1.01
TGCGAGTGTG | 1.01
GCGGAAAGGT | 0.974
AGTAGAAGTA | 1.03
CCAGCCGCTA | 2.13
ATGCGGCCAG | 1.03
CCGAGAGCCT | 1.98
ATTGCGTCAA | 0.959
CTTGCAAACT | 1.21

Sequence | switch fluorescence ratio
AATATTGCGT | 0.98
TGCAGCAGTG | 1.1
TTGCTTTAGG | 1.02
AAACTTAAGG | 1.01
AGCCACCGGG | 1.17
CACAGATAGC | 1.02
AAAGTGCAA | 1.05
TCTTCTCTCA | 1.01
AACGACCGA | 1.21
GGGATTTCGT | 0.987
ATTTGTTTCG | 0.995
ACTGCCATTA | 1.19
CTAATGTCCG | 1.05
CTTTACACGC | 1.09
TAAGGCCGGC | 1.08
CTATGGTATT | 1.01
CAGCTACAGC | 0.999
GTCAGAAACT | 0.976
ATTTTCCGGT | 1.02
TACATAAGG | 1.01
TACATGGGG | 1.03
AATGGCGTGT | 1.03
CGTCTGAGCT | 1.04

Sequence | switch fluorescence ratio
GACTATAGAG | 1.02
GAGGGAAGGA | 1.01
ATTGTCCGAC | 1.02
TTAAGGCATA | 1.02
CGAGGGTTCT | 0.968
GTGGACGTAA | 1.12
CATCTTCCCA | 1.05
GCACCTAATC | 1.03
TCTTCCTACT | 1.4
TTGCTTATGC | 1.06
CGCTGCCCTA | 1.06
GAATTTGTGC | 1.13
GTAGTATAAC | 1.01
ACACTGCAGT | 1.05
AATCATTCGT | 1.02
AGCAAGGTAC | 2.61
CGTGACTTC | 1.04
GGCAGGGCTT | 0.977
CTTTACGACA | 1.25
TCCGTACAGT | 1.09
GAGACTGTAA | 1.04
CCATGTGGCT | 0.984
TCATCTGAC | 1.13

Sequence | switch fluorescence ratio
TCGCTAAAGA | 1.03
TAGGTATAGG | 0.974
GGTGATAAGG | 1.01
ACTCAACCCG | 1.17
TTCTGGCAAC | 1.15
TATGGTAAGT | 1
GTTTAAGAT | 1.16
AGTGTTGCCA | 0.984
AATAGGAACC | 0.997
TTTTAGAATA | 0.973
ACTATTTCAG | 1.03
AATGGTAAGT | 0.994
GTGGAGAACG | 1.01
TGGCATTTCA | 1.01
AATGATTAGC | 1.02
TGACGTATCG | 0.986
AGCATGCACA | 1.04
ACAGTAATCT | 1.12
ATGCTTTAGG | 0.977
TGGAACATAT | 1.02
GTAGTTTATA | 0.952
GTTATTGTCG | 1.09
TTCCTGCTGT | 1.01

Sequence | switch fluorescence ratio
CCACCTAGGT | 1.17
TTGACTGAG | 1.03
TCCACGAAGC | 1.13
GATACCGCCC | 2.54
GTGGGACGGT | 0.974
GTTCCGGGTG | 2.67
TTACCGTTT | 1.07
GAGAAAGGGA | 1.01
CAAAGAAACA | 0.98
ATTAGTATGG | 0.958
AGGACTCCTC | 1.02
CGTCTAGGAG | 0.974
TTATCCCCTT | 0.996
GGAGGTCAAG | 0.992
CGTCTGAT | 0.99
TTGCGATCCA | 1.03
TTGAAAAATA | 0.954
ACTGATAGCT | 1.02
TAATTTCCG | 1.04
GAGGATCGTC | 0.965
AAGCTAATCA | 0.99
AACTGGCCCC | 1.01
GAGTCGGCTA | 0.978

Sequence | switch fluorescence ratio
GCCGAGAGCG | 1.08
TACGGTTTTG | 1.02
GGCCCTGGTG | 6.14
CACGTTCGTG | 1.04
CTTTTATTGA | 1.05
ATCTAACGTT | 1.04
ACAGGTGGTG | 1.06
TCCCCCCTAC | 2.29
ACAAAACACC | 1.3
GGCAACACTG | 0.999
TGCGATTCTC | 1.34
ACAAGGCGAC | 1.06
TTAAGACCTT | 0.959
GGTAGGAATT | 1.53
ATTGGCGAA | 0.991
TGATTCTGGG | 0.996
GAGGCGAGAG | 1.12
TTGCTATAAG | 0.995
TAGGGGCGAA | 0.969
TCGGAACGAC | 1.08
GTATGGCATG | 0.998
GCCGTCATTG | 0.981
TACTCATTCT | 1.02

Sequence | switch fluorescence ratio
TTTTCGA | 1.03
GCTGGGTCCC | 1.02
GTTCATCAGT | 1
AACTCATCTT | 1.03
ATCGTAGGGG | 1.07
TAATCATATC | 0.953
AGAACCTAGA | 1
ACCTTCGACC | 3.07
AGGAAACAGT | 1.01
ATAATTAACT | 1.01
TAACCTGCTC | 1.67
AAAACCTGTT | 1.09
ACAGATTGTT | 0.958
TAGATACAGC | 0.999
TGTAGAGATT | 1.02
TCAGCAGGC | 1.75
TTTGTAGAT | 1.03
TGGTTCGTTC | 1.01
ATCCGGCCAC | 1.13
AGCCTGATGT | 0.973

Reference: the supplement of paper PMC10126150
